# Experimental data published in the supplement of paper PMC10338343.
# ± gives the standard deviation. The list shows a part of the results, in another mix than the full data.
# Tested on: MIWI (PIWIL1) piRISC loaded with L1MC piRNA (30 nt)
# Assay: pre-steady-state target cleavage rate (min^-1); MIWI and MILI are mouse PIWI proteins and EfPiwi is from a freshwater sponge; tags in brackets are library labels; higher = faster piRNA-guided slicing of the target
# Settings: guide: L1MC piRNA 5'p-UAACUAAAUACUAUGCAAGCUGUAGGUCCU; auxiliary factor: 500 nM mouse GTSF1
# Procedure: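 Cleave-'n-Seq: a library of target RNAs (target site embedded in constant flanks, ACAGCATTCCGCGTTAGTGATATCCG... 5' flank; DNA-blocked outside the site) at 0.1 nM was incubated with 1 nM active mouse MILI or MIWI piRISC (synthetic 5'-monophosphorylated piRNA guide) with or without 500 nM mouse GTSF1 at 33 °C for 1 min to 16 h. Uncleaved targets were sequenced and normalised to non-target controls, and the pooled three trials were fitted to a burst-and-steady-state model to give the pre-steady-state cleavage rate (min^-1; k3 is constrained to at most 1e-4). Sequence is the target site only; target names encode pairing extent (gX:gY) and contiguous / 1-mismatch / 2-mismatch / bulge geometry. Fits with R² ≤ 0 are excluded.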
row,Sequence,pre-steady-state target cleavage rate
1,UCCUCCAACAGCUUGCAAAGUAUUUAGUUA,1.16 ± 0.043
2,UCGACCUACAGCUUGCAUAGUAUUUAGUCA,0.947 ± 0.041
3,UCCUGGAUGAGCUUGCAUUGUAUUUUGUUA,0.149 ± 0.016
4,UCGACCUACAGGUUGCAUAGUAAUUAGUUA,0.76 ± 0.045
5,UCGACCAUCAGCUUGCAUAGUAUUUAGUUA,1.2 ± 0.043
6,UCCUGGAUGAGCUUGGAUACUAUUUAGUUA,0.0602 ± 0.015
7,UCCACCUACAGCAUUGCAUAGUAUUUAGUUA,0.935 ± 0.11
8,AGGACCUACAGCUUGCUAAGUAUUUAGUAA,0.23 ± 0.044
9,UCCUGGUACAGCUUGCAUACUUUUUAGUUA,0.023 ± 0.0077
10,UCCACCUACAGCUUGCAUAGUAUUUUGUUA,0.733 ± 0.061
11,UCGACCUACAGCUUGCACAGUAUUUAGUUA,1.18 ± 0.032
12,AGGACCUACAGCUUGCAUAGUAUAAAGUAA,0.443 ± 0.069
13,UGCUGCUACAGCUUGCAUAGUAUUUAGUAA,0.875 ± 0.084
14,UCCUGGAUCAGCAUGCAUACUAUUUAGUUA,0.247 ± 0.017
15,UCCUGGUACAGCUUGCAAUAGUAUUUAGUUA,0.0375 ± 0.0098
16,ACCACCUACAGCUUGCAUAGUAUUUAGAAA,0.462 ± 0.065
17,UCGACCUACAGCUUACAUAGUAUUUAGUUA,1.59 ± 0.062
18,UCGACCUACAGCGUUGCAUAGUAUUUAGUUA,1.21 ± 0.073
19,UCCUCCUACAGCUUCGAUAGUAUUUAGAAA,0.0755 ± 0.019
20,AGGACCUACACGAUGCAUAGUAUUUAGAAA,0.261 ± 0.027
21,UGGACCUACAGCUUGCAUAGCUAUUUAGUUA,0.00639 ± 0.0036
22,AGGACCUACUCCUUGCAUAGUAUUUACAAA,0.211 ± 0.032

# Same assay, conditions: guide: L1MC piRNA 5'p-UAACUAAAUACUAUGCAAGCUGUAGGUCCU; auxiliary factor: none (no GTSF1)
row,Sequence,pre-steady-state target cleavage rate
1,UCCUCCAACAGCUUGCAAAGUAUUUAGUUA,0.0397 ± 0.0099
2,UCGACCUACAGCUUGCAUAGUAUUUAGUCA,0.0656 ± 0.013
3,UCCUGGAUGAGCUUGCAUUGUAUUUUGUUA,0.0127 ± 0.0043
4,UCGACCUACAGGUUGCAUAGUAAUUAGUUA,0.0133 ± 0.0034
5,UCGACCAUCAGCUUGCAUAGUAUUUAGUUA,0.0929 ± 0.016
6,UCCUGGAUGAGCUUGGAUACUAUUUAGUUA,0.00625 ± 0.0037
7,UCCACCUACAGCAUUGCAUAGUAUUUAGUUA,0.027 ± 0.0041
8,UCCUGGUACAGCUUGCAUACUUUUUAGUUA,0.00533 ± 0.0023
9,UCCACCUACAGCUUGCAUAGUAUUUUGUUA,0.0362 ± 0.0057
10,UCGACCUACAGCUUGCACAGUAUUUAGUUA,0.051 ± 0.0086
11,AGGACCUACAGCUUGCAUAGUAUAAAGUAA,0.00659 ± 0.0031
12,UGCUGCUACAGCUUGCAUAGUAUUUAGUAA,0.0204 ± 0.0041
13,UCCUGGAUCAGCAUGCAUACUAUUUAGUUA,0.00941 ± 0.0023
14,UCCUGGUACAGCUUGCAAUAGUAUUUAGUUA,0.00446 ± 0.0028
15,ACCACCUACAGCUUGCAUAGUAUUUAGAAA,0.00839 ± 0.004
16,UCGACCUACAGCUUACAUAGUAUUUAGUUA,0.0382 ± 0.0069
17,UCGACCUACAGCGUUGCAUAGUAUUUAGUUA,0.0561 ± 0.01
18,AGGACCUACUCCUUGCAUAGUAUUUACAAA,0.00527 ± 0.0015
